Experimental data taken from a collection of fitness landscapes (doi:10.1016/j.celrep.2020.107928).
In all, about 81,000 sequences were measured (“one-hybrid fitness for binding NBS DNA”: median about -0.1, highest 2% from about 0.36 on). This is one part of the list.

B1: Caulobacter ParB omega fusion; a variant is named by its letters at X, in order, B8GW30 (parent)
chain: MESVVVGEPGMSEGRRGLGRGLSALLGEVDAAPAQAPGEQLGGSREAPIEILQRNPDQPRRTFREEDLEDLSNSIREKGVLQPILVRPSPDTAGEYQIVAGERAWRAAQRAGLKTVPIMVRELDDLAVLEIGIIENVQRADLNVLEEALSYKVLMEKFERTQENIAQTIGKSXSHVANXMRLLXLPDEVQSYLVSGELTAXHARAIAAAADPVALAKQIIEGGLSVRETEALARKAPNLSAGKSKGGRPPRVKDTDTQALESDLSSVLGLDVSIDHRGSTGTLTITYATLEQLDDLCNRLTRGI

Variants of: B1
Assay: one-hybrid fitness for binding NBS DNA (the Noc-binding site; scaled: cognate 1, non-cognate 0); higher = stronger binding
Settings: with NBS DNA site
Outline: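 Values were rescaled so that cognate is 1 and non-cognate is 0. Each is a fitness, the log change in a variant's read ratio to wild type from Illumina reads of plasmids before and after selection, with three replicate libraries pooled and variants under 10 reads dropped. Selection of the Caulobacter ParB libraries, four specificity codons randomised, used E. coli USO with a HIS3 reporter, site 19 bp from the promoter, on M9-minus-histidine with 0.1 mM IPTG and 5 mM 3-AT for 48 hours at 37°C.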

| Variant | one-hybrid fitness for binding NBS DNA |
| --- | --- |
| GQLN | ≤ 0.2 |
| EATT | ≤ 0.2 |
| ETRL | ≤ 0.2 |
| LYPS | ≤ 0.2 |
| WRGS | ≤ 0.2 |
| QTGM | 0.3 |
| RWES | ≤ 0.2 |
| MMIG | ≤ 0.2 |
| QGEI | ≤ 0.2 |
| ALEL | ≤ 0.2 |
| WALT | ≤ 0.2 |
| GAKR | 0.234 |
| DRDE | ≤ 0.2 |
| SNLK | ≤ 0.2 |
| MIDE | ≤ 0.2 |
| QLGN | ≤ 0.2 |
| VWKS | ≤ 0.2 |
| ALSC | ≤ 0.2 |
| SMKM | ≤ 0.2 |
| HPQG | ≤ 0.2 |
| KRPE | ≤ 0.2 |
| VGQF | ≤ 0.2 |
| NAAV | ≤ 0.2 |
| RIHM | ≤ 0.2 |

| Variant | one-hybrid fitness for binding NBS DNA |
| --- | --- |
| IVVT | ≤ 0.2 |
| LHDC | ≤ 0.2 |
| VLQC | ≤ 0.2 |
| PRPV | ≤ 0.2 |
| NLNT | ≤ 0.2 |
| SSLF | ≤ 0.2 |
| KLAY | ≤ 0.2 |
| PHME | ≤ 0.2 |
| FYHF | ≤ 0.2 |
| TSQR | ≤ 0.2 |
| KHSR | ≤ 0.2 |
| QYAF | ≤ 0.2 |
| SVWT | ≤ 0.2 |
| YCTG | ≤ 0.2 |
| RIWQ | ≤ 0.2 |
| ARIK | ≤ 0.2 |
| SPPN | ≤ 0.2 |
| YHDT | ≤ 0.2 |
| VRAI | ≤ 0.2 |
| NLRT | ≤ 0.2 |
| KNKH | ≤ 0.2 |
| RYYV | ≤ 0.2 |
| VMIT | ≤ 0.2 |
| IEVY | ≤ 0.2 |

| Variant | one-hybrid fitness for binding NBS DNA |
| --- | --- |
| NQKF | ≤ 0.2 |
| CVQC | ≤ 0.2 |
| DREL | ≤ 0.2 |
| YCGC | ≤ 0.2 |
| WYCR | 0.33 |
| GSWS | ≤ 0.2 |
| QQQD | ≤ 0.2 |
| AAGT | ≤ 0.2 |
| SIDS | ≤ 0.2 |
| IRLC | ≤ 0.2 |
| MKVS | ≤ 0.2 |
| LTMT | ≤ 0.2 |
| GLHG | ≤ 0.2 |
| RCFL | ≤ 0.2 |
| MVIL | ≤ 0.2 |
| GQRV | ≤ 0.2 |
| FTIK | ≤ 0.2 |
| GMQP | ≤ 0.2 |
| NEAV | ≤ 0.2 |
| VSEG | ≤ 0.2 |
| LWYM | ≤ 0.2 |
| IPLR | ≤ 0.2 |
| HFPC | ≤ 0.2 |
| QAGR | 0.525 |

| Variant | one-hybrid fitness for binding NBS DNA |
| --- | --- |
| AEQL | ≤ 0.2 |
| RDDI | ≤ 0.2 |
| TSLI | ≤ 0.2 |
| HDNR | ≤ 0.2 |
| CSPC | ≤ 0.2 |
| QLFQ | ≤ 0.2 |
| YHMC | ≤ 0.2 |
| HETL | ≤ 0.2 |
| PNKG | ≤ 0.2 |
| SEKR | ≤ 0.2 |
| FPAA | ≤ 0.2 |
| LWLL | ≤ 0.2 |
| AKTP | ≤ 0.2 |
| WTTI | ≤ 0.2 |
| KVYR | ≤ 0.2 |
| RPQK | ≤ 0.2 |
| THAL | ≤ 0.2 |
| GWKS | ≤ 0.2 |
| GRYW | ≤ 0.2 |
| RKWM | ≤ 0.2 |
| HMHL | ≤ 0.2 |
| QCTH | 0.295 |
| TQTE | ≤ 0.2 |
| IHKT | ≤ 0.2 |

| Variant | one-hybrid fitness for binding NBS DNA |
| --- | --- |
| LCME | ≤ 0.2 |
| KTMW | ≤ 0.2 |
| ITLI | ≤ 0.2 |
| ISRA | ≤ 0.2 |
| EETT | ≤ 0.2 |
| SALK | ≤ 0.2 |
| DSSA | ≤ 0.2 |
| IFQR | ≤ 0.2 |
| QYFY | ≤ 0.2 |
| IAGR | ≤ 0.2 |
| TALA | ≤ 0.2 |
| IGPR | ≤ 0.2 |
| HICD | ≤ 0.2 |
| FARV | ≤ 0.2 |
| RWLT | ≤ 0.2 |
| TTLL | ≤ 0.2 |
| TEGW | ≤ 0.2 |
| IRMV | ≤ 0.2 |
| SLGR | ≤ 0.2 |
| QIVL | ≤ 0.2 |
| IKTQ | ≤ 0.2 |
| SLKG | ≤ 0.2 |
| SDRS | ≤ 0.2 |
| CCET | ≤ 0.2 |

| Variant | one-hybrid fitness for binding NBS DNA |
| --- | --- |
| NGME | ≤ 0.2 |
| FPHL | ≤ 0.2 |
| KKLG | ≤ 0.2 |
| HPPT | ≤ 0.2 |
| KQHT | ≤ 0.2 |
| SCQS | ≤ 0.2 |
| IACS | ≤ 0.2 |
| VPMV | ≤ 0.2 |
| LSYF | ≤ 0.2 |
| WTSE | ≤ 0.2 |
| ECTT | ≤ 0.2 |
| GRPW | ≤ 0.2 |
| CPKF | ≤ 0.2 |
| QPIK | ≤ 0.2 |
| QGFL | ≤ 0.2 |
| CRPP | ≤ 0.2 |
| HKPA | ≤ 0.2 |
| CGKE | ≤ 0.2 |
| RNTN | ≤ 0.2 |
| MRHP | ≤ 0.2 |
| SVKN | ≤ 0.2 |
| IDYR | ≤ 0.2 |
| QQPA | ≤ 0.2 |
| RQGN | ≤ 0.2 |

| Variant | one-hybrid fitness for binding NBS DNA |
| --- | --- |
| LPDR | ≤ 0.2 |
| AQKM | ≤ 0.2 |
| WWRR | ≤ 0.2 |
| NSMG | ≤ 0.2 |
| MKQR | ≤ 0.2 |
| HGHR | ≤ 0.2 |
| HCTD | ≤ 0.2 |
| QEST | ≤ 0.2 |
| EDES | ≤ 0.2 |
| WELN | ≤ 0.2 |
| AKSY | ≤ 0.2 |
| VHYG | ≤ 0.2 |
| MGHV | ≤ 0.2 |
| STLY | ≤ 0.2 |
| CCRE | ≤ 0.2 |
| VMGR | ≤ 0.2 |
| QMQP | ≤ 0.2 |
| QMRL | 0.287 |
| RCVM | ≤ 0.2 |
| IACC | ≤ 0.2 |
| RPSE | ≤ 0.2 |
| PVDG | ≤ 0.2 |
| VYNG | ≤ 0.2 |
| QYYL | ≤ 0.2 |

| Variant | one-hybrid fitness for binding NBS DNA |
| --- | --- |
| TRYI | ≤ 0.2 |
| HRKE | ≤ 0.2 |
| HSEF | ≤ 0.2 |
| VHMG | ≤ 0.2 |
| SCFT | ≤ 0.2 |
| LDPI | ≤ 0.2 |
| KGTE | ≤ 0.2 |
| WNIG | ≤ 0.2 |
| TAKN | ≤ 0.2 |
| RFSA | ≤ 0.2 |
| RHNY | ≤ 0.2 |
| GQQL | ≤ 0.2 |
| QFHG | ≤ 0.2 |
| TYCK | ≤ 0.2 |
| LETV | ≤ 0.2 |
| PHPY | ≤ 0.2 |
| SNKL | ≤ 0.2 |
| KGVE | ≤ 0.2 |
| PTLI | ≤ 0.2 |
| RWSF | ≤ 0.2 |
| YEGR | ≤ 0.2 |
| YATS | ≤ 0.2 |
| IMDR | ≤ 0.2 |
| YGKT | ≤ 0.2 |

| Variant | one-hybrid fitness for binding NBS DNA |
| --- | --- |
| ICSY | ≤ 0.2 |
| QAGM | ≤ 0.2 |
| WYRG | ≤ 0.2 |
| VAIC | ≤ 0.2 |
| FKMT | ≤ 0.2 |
| KMCC | ≤ 0.2 |
| KRSW | ≤ 0.2 |
| RARM | ≤ 0.2 |
| LQIS | ≤ 0.2 |
| DKHR | ≤ 0.2 |
| VPDF | ≤ 0.2 |
| SLTF | ≤ 0.2 |
| GECG | ≤ 0.2 |
| QWSN | ≤ 0.2 |
| RTEA | ≤ 0.2 |
| ADFD | ≤ 0.2 |
| RIPE | ≤ 0.2 |
| VVVT | ≤ 0.2 |
| KTWN | ≤ 0.2 |
| WRWG | ≤ 0.2 |
| TFHY | ≤ 0.2 |
| MATY | ≤ 0.2 |
| GNCS | ≤ 0.2 |
| STGL | ≤ 0.2 |

| Variant | one-hybrid fitness for binding NBS DNA |
| --- | --- |
| YKRQ | ≤ 0.2 |
| PPSC | ≤ 0.2 |
| RTYS | 0.491 |
| GCPT | ≤ 0.2 |
| CRDR | ≤ 0.2 |
| RSAF | ≤ 0.2 |
| AMAM | ≤ 0.2 |
| IWGT | ≤ 0.2 |
| REIS | ≤ 0.2 |
| CYHP | ≤ 0.2 |
| VSVN | ≤ 0.2 |
| ACEA | ≤ 0.2 |
| AYQT | ≤ 0.2 |
| TVSW | ≤ 0.2 |
| QQDM | ≤ 0.2 |
| TWCL | ≤ 0.2 |
| VNLV | ≤ 0.2 |
| NVTC | ≤ 0.2 |
| AIHG | ≤ 0.2 |
| RKMS | 0.586 |
| HSSM | ≤ 0.2 |
| SPYR | ≤ 0.2 |
| PLMH | ≤ 0.2 |
| PMVF | ≤ 0.2 |

| Variant | one-hybrid fitness for binding NBS DNA |
| --- | --- |
| VGTH | ≤ 0.2 |
| NHTS | ≤ 0.2 |
| VPRE | ≤ 0.2 |
| QAMD | ≤ 0.2 |
| MTTR | ≤ 0.2 |
| HPDP | ≤ 0.2 |
| DKQR | ≤ 0.2 |
| HSTV | ≤ 0.2 |
| RYFY | ≤ 0.2 |
| RLDA | ≤ 0.2 |
| HGKW | ≤ 0.2 |
| IQYG | ≤ 0.2 |
| NSHA | ≤ 0.2 |
| PEAY | ≤ 0.2 |
| NRTW | ≤ 0.2 |
| QLIY | ≤ 0.2 |
| TVDG | ≤ 0.2 |
| GCFC | ≤ 0.2 |
| FTNP | ≤ 0.2 |
| EVWR | ≤ 0.2 |
| QYTV | ≤ 0.2 |
| EKLD | ≤ 0.2 |
| QGTG | ≤ 0.2 |
| TKAS | ≤ 0.2 |

| Variant | one-hybrid fitness for binding NBS DNA |
| --- | --- |
| CFQR | ≤ 0.2 |
| RIEF | ≤ 0.2 |
| EPRQ | ≤ 0.2 |
| MEGT | ≤ 0.2 |
| KALR | ≤ 0.2 |
| AFRL | ≤ 0.2 |
| PWGS | ≤ 0.2 |
| PGKR | ≤ 0.2 |
| GLAP | ≤ 0.2 |
| RRNY | 0.589 |
| NEAR | ≤ 0.2 |
| GVKG | ≤ 0.2 |
| WMRS | ≤ 0.2 |
| EGAS | ≤ 0.2 |
| QQAC | ≤ 0.2 |
| LTYM | ≤ 0.2 |
| HCSW | ≤ 0.2 |
| PTDS | ≤ 0.2 |
| QSKH | 0.587 |
| HMYE | ≤ 0.2 |
| ATFE | ≤ 0.2 |
| YRWS | ≤ 0.2 |
| WPET | ≤ 0.2 |
| MHKS | ≤ 0.2 |

| Variant | one-hybrid fitness for binding NBS DNA |
| --- | --- |
| QYPY | ≤ 0.2 |
| HSTG | ≤ 0.2 |
| NQTR | ≤ 0.2 |
| IYSA | ≤ 0.2 |
| HVWS | ≤ 0.2 |
| PKPD | ≤ 0.2 |
| FCND | ≤ 0.2 |
| AYGK | ≤ 0.2 |
| SHER | ≤ 0.2 |
| ASST | ≤ 0.2 |
| KRQK | ≤ 0.2 |
| QAEY | ≤ 0.2 |
| YTTN | ≤ 0.2 |
| NANR | ≤ 0.2 |
| YLMC | ≤ 0.2 |
| GPDK | ≤ 0.2 |
| IVCS | ≤ 0.2 |
| RMRS | 0.642 |
